# Assay results from the supplement of paper PMC8728848.
# The list shows a part of the results.
# B1: Cohesin-mDC-ASGPR (Macaca mulatta) (protein)
# chain: LDITSHHHHHHDDLDAVRIKVDTVNAKPGDTVRIPVRFSGIPSKGIANCDFVYSYDPNVLEIIEIEPGDIIVDPNPDKSFDTAVYPDRKIIVFLFAEDSGTGAYAITKDGVFATIVAKVKEGAPNGLSVIKFVEVGGFANNDLVEQKTQFFDGGVNVGDTTEPATPTTPVTTPTTTDDLDAASSQNSKFQRDLVTLRTDFSNFTSNTVAEIQALTSQGSSVEEMIASLKAEVEVIKQEQQAVHSEMLLRVQRLMQDLNKLTCQVATLKNNASTERTCCPVNWVEHQDSCYWFSRSGMPWAEAEKHCQLENAHLVVINSREEQNFVQEHLSFAYTWMGLSDREGAWKWVDGTDYETGFQNWKPGQPDDWQGHGLGGGEDCAHFHPDGRWNDDVCQRPYYWVCEAGLTQASQESH
# Assays:
# Assay in all cases: glycan array binding signal (z-score within array); higher = stronger binding
# Settings in all cases: glycan notation: IUPAC condensed, linker removed
# Fuc(a1-2)Gal = target: Fuc(a1-2)Gal
# In short: (§1)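 Negative Z-scores can be read as non-binding. The Z-score is calculated within each array and then averaged across arrays of one protein sequence at different concentrations or buffers and across linkers. Arrays, 3228 in all, were curated from the Consortium for Functional Glycomics database and kept only where the protein sequence was available.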
# Fuc(a1-2)Gal(b1-3)GalNAc = target: Fuc(a1-2)Gal(b1-3)GalNAc
# In short: as §1
# [1] = target: Fuc(a1-2)Gal(b1-3)GalNAc(a1-3)[Fuc(a1-2)]Gal(b1-4)Glc
# In short: as §1
# [2] = target: Fuc(a1-2)Gal(b1-3)GalNAc(a1-3)[Fuc(a1-2)]Gal(b1-4)GlcNAc
# In short: as §1
# [3] = target: Fuc(a1-2)Gal(b1-3)GalNAc(b1-3)Gal
# In short: as §1
# [4] = target: Fuc(a1-2)Gal(b1-3)GalNAc(b1-3)Gal(a1-4)Gal(b1-4)Glc
# In short: as §1
# [5] = target: Fuc(a1-2)Gal(b1-3)GalNAc(b1-4)[Neu5Ac(a2-3)]Gal(b1-4)Glc
# In short: as §1
# Fuc(a1-2)Gal(b1-3)GlcNAc = target: Fuc(a1-2)Gal(b1-3)GlcNAc
# In short: as §1
# [6] = target: Fuc(a1-2)Gal(b1-3)GlcNAc(b1-2)Man(a1-3)[Fuc(a1-2)Gal(b1-3)GlcNAc(b1-2)Man(a1-6)]Man(b1-4)GlcNAc(b1-4)GlcNAc
# In short: as §1
# [7] = target: Fuc(a1-2)Gal(b1-3)GlcNAc(b1-2)Man(a1-3)[Fuc(a1-2)Gal(b1-3)GlcNAc(b1-2)Man(a1-6)]Man(b1-4)GlcNAc(b1-4)[Fuc(a1-6)]GlcNAc
# In short: as §1
# [8] = target: Fuc(a1-2)Gal(b1-3)GlcNAc(b1-3)Gal(b1-4)Glc
# In short: as §1
# [9] = target: Fuc(a1-2)Gal(b1-3)GlcNAc(b1-3)GalNAc
# In short: as §1
# [10] = target: Fuc(a1-2)Gal(b1-3)GlcNAc(b1-3)[Fuc(a1-2)Gal(b1-3)GlcNAc(b1-6)]GalNAc
# In short: as §1
# [11] = target: Fuc(a1-2)Gal(b1-3)GlcNAc(b1-3)[Gal(b1-4)GlcNAc(b1-6)]Gal(b1-4)Glc
# In short: as §1
# [12] = target: Fuc(a1-2)Gal(b1-3)GlcNAc(b1-3)[Neu5Ac(a2-6)Gal(b1-4)GlcNAc(b1-6)]Gal(b1-4)Glc
# In short: as §1
# [13] = target: Fuc(a1-2)Gal(b1-3)GlcNAc6S
# In short: as §1
# [14] = target: Fuc(a1-2)Gal(b1-3)[Fuc(a1-4)]GlcNAc
# In short: as §1
# [15] = target: Fuc(a1-2)Gal(b1-3)[Fuc(a1-4)]GlcNAc(b1-2)Man(a1-3)[Fuc(a1-2)Gal(b1-3)[Fuc(a1-4)]GlcNAc(b1-2)Man(a1-3)]Man(b1-4)GlcNAc(b1-4)GlcNAc
# In short: as §1
# [16] = target: Fuc(a1-2)Gal(b1-3)[Fuc(a1-4)]GlcNAc(b1-2)Man(a1-3)[Fuc(a1-2)Gal(b1-3)[Fuc(a1-4)]GlcNAc(b1-2)Man(a1-6)]Man(b1-4)GlcNAc(b1-4)[Fuc(a1-6)]GlcNAc(b1-4)[Fuc(a1-6)]GlcNAc
# In short: as §1
# [17] = target: Fuc(a1-2)Gal(b1-3)[Fuc(a1-4)]GlcNAc(b1-3)[Fuc(a1-3)[Gal(b1-4)]GlcNAc(b1-6)]Gal(b1-4)Glc
# In short: as §1
# [18] = target: Fuc(a1-2)Gal(b1-3)[Fuc(a1-4)]GlcNAc(b1-3)[Gal(b1-4)GlcNAc(b1-6)]Gal(b1-4)Glc
# In short: as §1
# Fuc(a1-2)Gal(b1-4)Glc = target: Fuc(a1-2)Gal(b1-4)Glc
# In short: as §1
# Fuc(a1-2)Gal(b1-4)Glc6S = target: Fuc(a1-2)Gal(b1-4)Glc6S
# In short: as §1
# Fuc(a1-2)Gal(b1-4)GlcNAc = target: Fuc(a1-2)Gal(b1-4)GlcNAc
# In short: as §1
# [19] = target: Fuc(a1-2)Gal(b1-4)GlcNAc(b1-2)Man
# In short: as §1
# [20] = target: Fuc(a1-2)Gal(b1-4)GlcNAc(b1-2)Man(a1-3)[Fuc(a1-2)Gal(b1-4)GlcNAc(b1-2)Man(a1-6)]Man(b1-4)GlcNAc(b1-4)GlcNAc
# In short: as §1
# [21] = target: Fuc(a1-2)Gal(b1-4)GlcNAc(b1-2)Man(a1-3)[Fuc(a1-2)Gal(b1-4)GlcNAc(b1-2)Man(a1-6)]Man(b1-4)GlcNAc(b1-4)[Fuc(a1-6)]GlcNAc
# In short: as §1
# [22] = target: Fuc(a1-2)Gal(b1-4)GlcNAc(b1-2)[Fuc(a1-2)Gal(b1-4)GlcNAc(b1-4)]Man(a1-3)[Fuc(a1-2)Gal(b1-4)GlcNAc(b1-2)Man(a1-6)]Man(b1-4)GlcNAc(b1-4)GlcNAc
# In short: as §1
# [23] = target: Fuc(a1-2)Gal(b1-4)GlcNAc(b1-3)Gal(b1-4)GlcNAc
# In short: as §1
# [24] = target: Fuc(a1-2)Gal(b1-4)GlcNAc(b1-3)Gal(b1-4)GlcNAc(b1-2)Man(a1-3)[Fuc(a1-2)Gal(b1-4)GlcNAc(b1-3)Gal(b1-4)GlcNAc(b1-2)Man(a1-6)]Man(b1-4)GlcNAc(b1-4)GlcNAc
# In short: as §1
# [25] = target: Fuc(a1-2)Gal(b1-4)GlcNAc(b1-3)Gal(b1-4)GlcNAc(b1-3)Gal(b1-4)GlcNAc
# In short: as §1
# [26] = target: Fuc(a1-2)Gal(b1-4)GlcNAc(b1-3)GalNAc
# In short: as §1
# [27] = target: Fuc(a1-2)Gal(b1-4)GlcNAc(b1-3)[Fuc(a1-2)Gal(b1-4)GlcNAc(b1-6)]GalNAc
# In short: as §1
# [28] = target: Fuc(a1-2)Gal(b1-4)GlcNAc(b1-3)[Fuc(a1-3)[Gal(b1-4)]GlcNAc(b1-6)]Gal(b1-4)Glc
# In short: as §1
# [29] = target: Fuc(a1-2)Gal(b1-4)GlcNAc(b1-6)GalNAc
# In short: as §1
# [30] = target: Fuc(a1-2)Gal(b1-4)GlcNAc6S
# In short: as §1
# [31] = target: Fuc(a1-2)Gal(b1-4)[Fuc(a1-3)]GlcNAc
# In short: as §1
# [32] = target: Fuc(a1-2)Gal(b1-4)[Fuc(a1-3)]GlcNAc(b1-2)Man(a1-3)[Fuc(a1-2)Gal(b1-4)[Fuc(a1-3)]GlcNAc(b1-2)Man(a1-6)]Man(b1-4)GlcNAc(b1-4)[Fuc(a1-6)]GlcNAc
# In short: as §1
# [33] = target: Fuc(a1-2)Gal(b1-4)[Fuc(a1-3)]GlcNAc(b1-2)[Fuc(a1-2)Gal(b1-4)[Fuc(a1-3)]GlcNAc(b1-4)]Man(a1-3)[Fuc(a1-2)Gal(b1-4)[Fuc(a1-3)]GlcNAc(b1-2)Man(a1-6)]Man(b1-4)GlcNAc(b1-4)GlcNAc
# In short: as §1
# [34] = target: Fuc(a1-2)Gal(b1-4)[Fuc(a1-3)]GlcNAc(b1-3)Gal(b1-4)[Fuc(a1-3)]GlcNAc
# In short: as §1
# [35] = target: Fuc(a1-2)Gal(b1-4)[Fuc(a1-3)]GlcNAc(b1-3)Gal(b1-4)[Fuc(a1-3)]GlcNAc(b1-3)Gal(b1-4)[Fuc(a1-3)]GlcNAc
# In short: as §1
# [36] = target: Fuc(a1-2)Gal(b1-4)[Fuc(a1-3)]GlcNAc(b1-3)GalNAc
# In short: as §1
# [37] = target: Fuc(a1-2)Gal(b1-4)[Fuc(a1-3)]GlcNAc(b1-3)[Neu5Ac(a2-6)Gal(b1-4)GlcNAc(b1-6)]Gal(b1-4)Glc
# In short: as §1
# [38] = target: Fuc(a1-2)Gal3S(b1-4)GlcNAc
# In short: as §1
# [39] = target: Fuc(a1-2)Gal6S(b1-3)GlcNAc
# In short: as §1
binder,measurement,setting,value
B1,glycan array binding signal (z-score),Fuc(a1-2)Gal,-0.408
same,glycan array binding signal (z-score),Fuc(a1-2)Gal(b1-3)GalNAc,-0.394
same,glycan array binding signal (z-score),[1],-0.406
same,glycan array binding signal (z-score),[2],-0.389
same,glycan array binding signal (z-score),[3],0.568
same,glycan array binding signal (z-score),[4],-0.392
same,glycan array binding signal (z-score),[5],0.874
same,glycan array binding signal (z-score),Fuc(a1-2)Gal(b1-3)GlcNAc,-0.39
same,glycan array binding signal (z-score),[6],-0.292
same,glycan array binding signal (z-score),[7],-0.227
same,glycan array binding signal (z-score),[8],-0.408
same,glycan array binding signal (z-score),[9],-0.366
same,glycan array binding signal (z-score),[10],-0.397
same,glycan array binding signal (z-score),[11],-0.417
same,glycan array binding signal (z-score),[12],-0.404
same,glycan array binding signal (z-score),[13],0.873
same,glycan array binding signal (z-score),[14],-0.383
same,glycan array binding signal (z-score),[15],-0.306
same,glycan array binding signal (z-score),[16],-0.274
same,glycan array binding signal (z-score),[17],-0.416
same,glycan array binding signal (z-score),[18],-0.41
same,glycan array binding signal (z-score),Fuc(a1-2)Gal(b1-4)Glc,-0.387
same,glycan array binding signal (z-score),Fuc(a1-2)Gal(b1-4)Glc6S,-0.41
same,glycan array binding signal (z-score),Fuc(a1-2)Gal(b1-4)GlcNAc,-0.402
same,glycan array binding signal (z-score),[19],-0.388
same,glycan array binding signal (z-score),[20],-0.295
same,glycan array binding signal (z-score),[21],-0.121
same,glycan array binding signal (z-score),[22],-0.35
same,glycan array binding signal (z-score),[23],-0.415
same,glycan array binding signal (z-score),[24],-0.29
same,glycan array binding signal (z-score),[25],-0.415
same,glycan array binding signal (z-score),[26],-0.361
same,glycan array binding signal (z-score),[27],0.249
same,glycan array binding signal (z-score),[28],-0.434
same,glycan array binding signal (z-score),[29],2.78
same,glycan array binding signal (z-score),[30],-0.411
same,glycan array binding signal (z-score),[31],-0.404
same,glycan array binding signal (z-score),[32],-0.222
same,glycan array binding signal (z-score),[33],-0.21
same,glycan array binding signal (z-score),[34],-0.421
same,glycan array binding signal (z-score),[35],-0.327
same,glycan array binding signal (z-score),[36],-0.31
same,glycan array binding signal (z-score),[37],-0.41
same,glycan array binding signal (z-score),[38],-0.39
same,glycan array binding signal (z-score),[39],-0.382
